# Assay results from publication PMC5540273 (PLoS ONE, 2017).
# For part of these data: Most of the strong results are listed elsewhere, so they are rarer here than in the full data. The list shows a part of the results, in another mix than the full data.
# System: MAPKAPK5
# Conditions: concentration: 1 μM,replicates: in singlicate; n = 1
# 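Note: KINOMEscan kinase panel screen.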
row,Compound,%Inh [%]
1,O=C1NC(=O)C(c2ccc(Cl)cc2)=C1Nc1cccc(C(=O)O)c1 [SB-360737],0
2,COc1cccc(C2=C(Nc3ccc(SC)cc3)C(=O)NC2=O)c1 [SB-331032],5
3,O=C1NC(=O)C(c2ccccc2Cl)=C1Nc1cccc(C(=O)O)c1 [SB-390526],0
4,O=C1NC(=O)C(c2ccc(Cl)cc2)=C1Nc1cccc(O)c1 [SB-333613],0
5,CS(=O)(=O)c1ccccc1-c1nc(-c2ccc(F)cc2)c(-c2ccncc2)[nH]1 [SB-213663],0
6,Cc1cc(C)cc(Oc2nccc(-c3c(-c4ccc(F)cc4)ncn3C3CCNCC3)n2)c1.O=C(O)C(F)(F)F.O=C(O)C(F)(F)F.O=C(O)C(F)(F)F [SB-284851],0
7,O=C1NC(=O)C(c2ccccc2Cl)=C1Nc1ccccc1 [SB-376715],0
8,COc1ccc(C2=C(Nc3cccc(Cl)c3)C(=O)NC2=O)cc1 [SB-326892],0
9,O=C(O)c1ccc(-c2nc(-c3ccc(F)cc3)c(-c3ccncc3)[nH]2)cc1 [SB-202620],0
10,CSc1ccc(NC2=C(c3cccc(Cl)c3)C(=O)NC2=O)cc1 [SB-341528],5
11,Cc1ccc(C)c(Oc2nccc(-c3c(-c4ccc(F)cc4)ncn3C3CCNCC3)n2)c1.O=C(O)C(F)(F)F.O=C(O)C(F)(F)F.O=C(O)C(F)(F)F [SB-284852],0
12,O=C1NC(=O)c2c1c(-c1ccccc1)cc1[nH]c3ccc(O)cc3c21,0
13,O=C1NC(=O)C(c2ccc(Cl)cc2)=C1Nc1ccc(O)c(Cl)c1 [SB-405367],0
14,O=C1NC(=O)C(c2ccccc2)=C1Nc1cc(Cl)c(O)c(Cl)c1 [SB-390530],0
15,O=C1NC(=O)C(c2ccc(Cl)cc2)=C1Nc1ccccc1 [SB-317661],22
16,O=C1NC(=O)C(c2ccccc2)=C1Nc1ccc(Cl)c(C(=O)O)c1 [SB-390532],0

# System: MARK1
# Conditions: concentration: 1 μM,replicates: in singlicate; n = 1
row,Compound,%Inh [%]
1,O=C1NC(=O)C(c2ccc(Cl)cc2)=C1Nc1cccc(C(=O)O)c1 [SB-360737],0
2,COc1cccc(C2=C(Nc3ccc(SC)cc3)C(=O)NC2=O)c1 [SB-331032],0
3,O=C1NC(=O)C(c2ccccc2Cl)=C1Nc1cccc(C(=O)O)c1 [SB-390526],0
4,O=C1NC(=O)C(c2ccc(Cl)cc2)=C1Nc1cccc(O)c1 [SB-333613],11
5,CS(=O)(=O)c1ccccc1-c1nc(-c2ccc(F)cc2)c(-c2ccncc2)[nH]1 [SB-213663],0
6,Cc1cc(C)cc(Oc2nccc(-c3c(-c4ccc(F)cc4)ncn3C3CCNCC3)n2)c1.O=C(O)C(F)(F)F.O=C(O)C(F)(F)F.O=C(O)C(F)(F)F [SB-284851],0
7,O=C1NC(=O)C(c2ccccc2Cl)=C1Nc1ccccc1 [SB-376715],35
8,COc1ccc(C2=C(Nc3cccc(Cl)c3)C(=O)NC2=O)cc1 [SB-326892],0
9,O=C(O)c1ccc(-c2nc(-c3ccc(F)cc3)c(-c3ccncc3)[nH]2)cc1 [SB-202620],26
10,CSc1ccc(NC2=C(c3cccc(Cl)c3)C(=O)NC2=O)cc1 [SB-341528],12
11,Cc1ccc(C)c(Oc2nccc(-c3c(-c4ccc(F)cc4)ncn3C3CCNCC3)n2)c1.O=C(O)C(F)(F)F.O=C(O)C(F)(F)F.O=C(O)C(F)(F)F [SB-284852],3
12,O=C1NC(=O)c2c1c(-c1ccccc1)cc1[nH]c3ccc(O)cc3c21,56
13,O=C1NC(=O)C(c2ccc(Cl)cc2)=C1Nc1ccc(O)c(Cl)c1 [SB-405367],8
14,O=C1NC(=O)C(c2ccccc2)=C1Nc1cc(Cl)c(O)c(Cl)c1 [SB-390530],0
15,O=C1NC(=O)C(c2ccc(Cl)cc2)=C1Nc1ccccc1 [SB-317661],16
16,O=C1NC(=O)C(c2ccccc2)=C1Nc1ccc(Cl)c(C(=O)O)c1 [SB-390532],0

# System: MARK2
# Conditions: concentration: 1 μM,replicates: in singlicate; n = 1
row,Compound,%Inh [%]
1,O=C1NC(=O)C(c2ccc(Cl)cc2)=C1Nc1cccc(C(=O)O)c1 [SB-360737],0
2,COc1cccc(C2=C(Nc3ccc(SC)cc3)C(=O)NC2=O)c1 [SB-331032],24
3,O=C1NC(=O)C(c2ccccc2Cl)=C1Nc1cccc(C(=O)O)c1 [SB-390526],0
4,O=C1NC(=O)C(c2ccc(Cl)cc2)=C1Nc1cccc(O)c1 [SB-333613],16
5,CS(=O)(=O)c1ccccc1-c1nc(-c2ccc(F)cc2)c(-c2ccncc2)[nH]1 [SB-213663],48
6,Cc1cc(C)cc(Oc2nccc(-c3c(-c4ccc(F)cc4)ncn3C3CCNCC3)n2)c1.O=C(O)C(F)(F)F.O=C(O)C(F)(F)F.O=C(O)C(F)(F)F [SB-284851],0
7,O=C1NC(=O)C(c2ccccc2Cl)=C1Nc1ccccc1 [SB-376715],20
8,COc1ccc(C2=C(Nc3cccc(Cl)c3)C(=O)NC2=O)cc1 [SB-326892],0
9,O=C(O)c1ccc(-c2nc(-c3ccc(F)cc3)c(-c3ccncc3)[nH]2)cc1 [SB-202620],22
10,CSc1ccc(NC2=C(c3cccc(Cl)c3)C(=O)NC2=O)cc1 [SB-341528],25
11,Cc1ccc(C)c(Oc2nccc(-c3c(-c4ccc(F)cc4)ncn3C3CCNCC3)n2)c1.O=C(O)C(F)(F)F.O=C(O)C(F)(F)F.O=C(O)C(F)(F)F [SB-284852],0
12,O=C1NC(=O)c2c1c(-c1ccccc1)cc1[nH]c3ccc(O)cc3c21,27
13,O=C1NC(=O)C(c2ccc(Cl)cc2)=C1Nc1ccc(O)c(Cl)c1 [SB-405367],14
14,O=C1NC(=O)C(c2ccccc2)=C1Nc1cc(Cl)c(O)c(Cl)c1 [SB-390530],0
15,O=C1NC(=O)C(c2ccc(Cl)cc2)=C1Nc1ccccc1 [SB-317661],0
16,O=C1NC(=O)C(c2ccccc2)=C1Nc1ccc(Cl)c(C(=O)O)c1 [SB-390532],0
